Assay [1] addresses T1, Flag-tagged PKD2 (human) (UniProt Q13563).
T1 sequence: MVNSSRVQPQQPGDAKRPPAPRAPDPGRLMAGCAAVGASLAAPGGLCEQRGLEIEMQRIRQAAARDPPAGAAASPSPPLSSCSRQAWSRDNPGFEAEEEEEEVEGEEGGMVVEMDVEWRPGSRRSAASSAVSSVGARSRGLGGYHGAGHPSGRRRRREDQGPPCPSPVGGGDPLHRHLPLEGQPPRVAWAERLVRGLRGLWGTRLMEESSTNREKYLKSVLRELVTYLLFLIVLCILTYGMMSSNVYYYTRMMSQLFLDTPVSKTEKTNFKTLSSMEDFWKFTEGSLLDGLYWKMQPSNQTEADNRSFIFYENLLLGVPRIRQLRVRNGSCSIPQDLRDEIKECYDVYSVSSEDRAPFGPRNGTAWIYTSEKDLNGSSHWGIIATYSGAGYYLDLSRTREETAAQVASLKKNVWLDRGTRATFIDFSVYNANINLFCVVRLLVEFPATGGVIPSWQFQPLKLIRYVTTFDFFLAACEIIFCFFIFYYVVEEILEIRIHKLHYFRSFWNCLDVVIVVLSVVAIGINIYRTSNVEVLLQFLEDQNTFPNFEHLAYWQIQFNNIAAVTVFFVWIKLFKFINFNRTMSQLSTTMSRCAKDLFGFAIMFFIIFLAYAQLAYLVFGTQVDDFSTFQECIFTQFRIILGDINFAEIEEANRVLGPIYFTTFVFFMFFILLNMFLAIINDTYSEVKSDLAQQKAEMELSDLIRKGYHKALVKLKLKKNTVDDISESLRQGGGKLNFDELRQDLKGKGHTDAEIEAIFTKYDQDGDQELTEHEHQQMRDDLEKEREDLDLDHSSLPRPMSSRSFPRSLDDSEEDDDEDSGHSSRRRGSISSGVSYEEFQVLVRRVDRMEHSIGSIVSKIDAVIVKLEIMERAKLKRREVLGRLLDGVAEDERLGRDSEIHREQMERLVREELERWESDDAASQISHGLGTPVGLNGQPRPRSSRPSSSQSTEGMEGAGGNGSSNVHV
The assay can be described thus: co-IP; HEK cell lysates (CelLytic M lysis buffer), antibody 5 h at 4 °C, protein A/G magnetic beads overnight, Western blot; proteins transfected or endogenous; for the PKD2 N/C and PKD2/PKD2 pairs with or without RASSF4 over-expression.

For assay [2], the target named is T2, HA-tagged PKD2 N-terminus (M1-S219) (human) (UniProt Q13563).
T2 sequence: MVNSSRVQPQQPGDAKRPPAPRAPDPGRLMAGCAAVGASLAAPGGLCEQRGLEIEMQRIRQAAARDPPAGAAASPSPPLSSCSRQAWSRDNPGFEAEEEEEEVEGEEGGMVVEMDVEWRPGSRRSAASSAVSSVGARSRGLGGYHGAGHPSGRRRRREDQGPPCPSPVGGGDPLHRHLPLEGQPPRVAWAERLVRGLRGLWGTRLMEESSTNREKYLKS
Described as above.

The target in assay [3] is T3, HA-tagged PKD2 central domain S1-S6 (K215-M675) (human) (UniProt Q13563).
T3 sequence: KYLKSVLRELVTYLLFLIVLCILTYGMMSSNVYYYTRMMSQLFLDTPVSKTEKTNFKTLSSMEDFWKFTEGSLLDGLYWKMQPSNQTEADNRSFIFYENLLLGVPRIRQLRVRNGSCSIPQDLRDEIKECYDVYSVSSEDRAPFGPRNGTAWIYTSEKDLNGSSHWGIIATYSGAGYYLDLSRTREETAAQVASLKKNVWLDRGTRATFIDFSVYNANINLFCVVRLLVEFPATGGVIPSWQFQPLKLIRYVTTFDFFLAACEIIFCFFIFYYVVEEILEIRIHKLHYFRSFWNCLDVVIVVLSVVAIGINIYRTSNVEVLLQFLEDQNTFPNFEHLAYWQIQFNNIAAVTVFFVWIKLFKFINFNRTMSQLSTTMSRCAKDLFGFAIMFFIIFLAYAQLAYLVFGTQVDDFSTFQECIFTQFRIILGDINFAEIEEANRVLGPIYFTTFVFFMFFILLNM
Described as above.

Assay [4] addresses T4, HA-tagged PKD2 C-terminus (I671-V968) (human) (UniProt Q13563).
T4 sequence: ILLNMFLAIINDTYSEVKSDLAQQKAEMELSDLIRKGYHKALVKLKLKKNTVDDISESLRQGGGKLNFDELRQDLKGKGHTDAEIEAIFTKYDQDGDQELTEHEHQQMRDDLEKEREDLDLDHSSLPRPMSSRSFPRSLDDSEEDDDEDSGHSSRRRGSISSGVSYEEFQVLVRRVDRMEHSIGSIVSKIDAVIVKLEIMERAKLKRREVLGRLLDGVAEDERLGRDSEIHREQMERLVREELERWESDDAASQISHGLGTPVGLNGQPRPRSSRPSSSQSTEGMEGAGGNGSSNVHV
The description is as above.

Assay [5] addresses T5, HA-tagged human PKD2 expressed in Xenopus oocytes (human) (UniProt Q13563).
T5 sequence: T1 sequence
The assay can be described thus: co-IP; lysates of Xenopus oocytes injected with mRNAs, protein A/G magnetic beads, Western blot.

Assay [6] addresses T6, endogenous PKD2 of HEK cells (human (endogenous in HEK cells)) (UniProt Q13563).
T6 sequence: T1 sequence
The assay can be described thus: co-IP; HEK cell lysates (CelLytic M lysis buffer), antibody 5 h at 4 °C, protein A/G magnetic beads overnight, Western blot; proteins transfected or endogenous; for the PKD2 N/C and PKD2/PKD2 pairs with or without RASSF4 over-expression. On the technique in general: In western blotting, separated proteins are transferred to a membrane and probed.

The target in assay [7] is T7, GFP-tagged PKD2 N-terminus (M1-S219) (human) (UniProt Q13563).
T7 sequence: T2 sequence
The assay is described as above.

Assay [8] deals with T8, GFP-tagged PKD2 C-terminus (I671-V968) (human) (UniProt Q13563).
T8 sequence: T4 sequence
The description is as above.

Assay [9] concerns the target T9, GFP-tagged PKD2 central domain S1-S6 (K215-M675) (human) (UniProt Q13563).
T9 sequence: T3 sequence
Described as above.

For assay [10], the target named is T10, human PKD2, transiently over-expressed in HEK293T cells (tag not stated) (human) (UniProt Q13563).
T10 sequence: T1 sequence
Described as above.

Assay [11] addresses T1, Flag-tagged PKD2 (human). The assay can be described thus: co-IP; HEK cells co-expressing full-length RASSF4 and PKD2 with a RASSF4 fragment as potential blocking peptide.

No constants are given. Whether binding was seen depends on the method and setting. Binding seen in cells or lysates may run through a third protein. Some entries that bind do so weakly or less than the wild type. Sequences can lack the tags named with a protein.

B1: GFP-tagged RASSF4 fragment V270-K321 (SARAH domain plus the C-terminus) (domain or fragment, UniProt Q9H2L5 270-321)
chain: VAQYIKFEMPVLDSFVEKLKEEEEREIIKLTMKFQALRLTMLQRLEQLVEAK
On to B1, for which the binding result in the assay with Flag-tagged PKD2 (human) [1] is “no binding”.

B2: GFP-tagged RASSF4 fragment Q70-A133 (domain or fragment, UniProt Q9H2L5 70-133)
chain: QMQDDREQVHLPSTSWMPRRPSCPLKEPSPQNGNITAQGPSIQPVHKAESSTDSSGPLEEAEEA
Turning to B2, the binding entry with Flag-tagged PKD2 (human) [1] was “binds”.

B3: GFP-tagged RASSF4 fragment G157-E269 (RA domain) (domain or fragment, UniProt Q9H2L5 157-269)
chain: GEAQRIRRHRFSINGHFYNHKTSVFTPAYGSVTNVRVNSTMTTLQVLTLLLNKFRVEDGPSEFALYIVHESGERTKLKDCEYPLISRILHGPCEKIARIFLMEADLGVEVPHE
In the case of B3, the binding result with Flag-tagged PKD2 (human) [1] is “no binding”.

B4: GFP-RASSF4 (protein, UniProt Q9H2L5 1-321)
chain: MKEDCLPSSHVPISDSKSIQKSELLGLLKTYNCYHEGKSFQLRHREEEGTLIIEGLLNIAWGLRRPIRLQMQDDREQVHLPSTSWMPRRPSCPLKEPSPQNGNITAQGPSIQPVHKAESSTDSSGPLEEAEEAPQLMRTKSDASCMSQRRPKCRAPGEAQRIRRHRFSINGHFYNHKTSVFTPAYGSVTNVRVNSTMTTLQVLTLLLNKFRVEDGPSEFALYIVHESGERTKLKDCEYPLISRILHGPCEKIARIFLMEADLGVEVPHEVAQYIKFEMPVLDSFVEKLKEEEEREIIKLTMKFQALRLTMLQRLEQLVEAK
In the case of B4, the binding result (in [2]; with Flag-tagged PKD2 (human) [1]; in assay [3]; in assay [4]) was “binds” throughout.

B5: human RASSF4 expressed in Xenopus oocytes (protein, UniProt Q9H2L5 1-321)
chain: B4 chain
For the molecule B5, the binding entry in [5] is recorded as “binds”.

B6: endogenous RASSF4 of HEK cells (protein, UniProt Q9H2L5 1-321)
chain: B4 chain
On to B6, for which, in assay [6], the binding result is recorded as “binds”.

B7: HA-RASSF4 (protein, UniProt Q9H2L5 1-321)
chain: B4 chain
B7: the binding entry in assay [7], in assay [8] and in [9] was “binds” in each case.

B8: human RASSF4, over-expressed in HEK cells (tag not stated) (protein, UniProt Q9H2L5 1-321)
chain: B4 chain
On to B8, for which the binding result (in [10]; in assay [6]; in the assay with Flag-tagged PKD2 (human) [11]) was “binds” throughout.

B9: GFP-tagged RASSF4 fragment M1-P156 (domain or fragment, UniProt Q9H2L5 1-156)
chain: MKEDCLPSSHVPISDSKSIQKSELLGLLKTYNCYHEGKSFQLRHREEEGTLIIEGLLNIAWGLRRPIRLQMQDDREQVHLPSTSWMPRRPSCPLKEPSPQNGNITAQGPSIQPVHKAESSTDSSGPLEEAEEAPQLMRTKSDASCMSQRRPKCRAP
For B9, the binding result (in assay [2]; with Flag-tagged PKD2 (human) [1]; in assay [3]; in [4]) was “binds” in each case.

B10: GFP-tagged RASSF4 fragment P134-S168 (domain or fragment, UniProt Q9H2L5 134-168)
chain: PQLMRTKSDASCMSQRRPKCRAPGEAQRIRRHRFS
B10: the binding entry with Flag-tagged PKD2 (human) [1] is “binds”.

B11: GFP-tagged RASSF4 fragment M1-L69 (domain or fragment, UniProt Q9H2L5 1-69)
chain: MKEDCLPSSHVPISDSKSIQKSELLGLLKTYNCYHEGKSFQLRHREEEGTLIIEGLLNIAWGLRRPIRL
Regarding B11, the binding entry with Flag-tagged PKD2 (human) [1] is “binds”.

Values taken from PMC13434659.
